# Screen size: about 110,000 compounds; about 40 (0.04%) were called active. Inconclusive results, whose numbers are uncertain, are shown with a selection of clear calls. Calls follow the shape of the dose curve; as a rule, active = well fitted curve in the direction sought with a large enough effect in the signal ratio (not every such curve was filed as active); inconclusive = small, poorly fitted or top-dose-only effect, or a change in a side signal; inactive = flat fitted curve, though single readings scatter; the % refers to the signal ratio. Where the call is inconclusive, the potency comes from a doubtful curve fit.
# Assay: IkB Signaling;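 as to IkBa stabilization activation: 0% = basal untreated cells and 100% = reference inhibitor full response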
# Conditions: ABC-DLBCL IkBa-CBG/CBR dual luciferase ratio (green luciferase fused to IkBa over red control in OCI-Ly3 lymphoma cells), 4 h; IkBa stabilization activation: at 57.1 µM (top of the series), scaled: untreated 0%, proteasome inhibitor 100% unless noted
# How it was run: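 In this assay, an IκBα–CBG68 fusion accumulates when IKK-driven degradation is blocked; native CBR normalizes for cell number. OCI-Ly3 cells were treated 4 h with compound and doxycycline, then green and red light read after Chroma-Glo addition.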
# Potency is read from the fitted curve at half-maximal effect.
SMILES,IkBa stabilization activation,Potency
Cc1ccc(CSC2=Nc3ccccc3C3=NC(CCC(=O)N4CCN(c5ccccc5)CC4)C(=O)N23)cc1 (stereo not drawn),inconclusive: -3.58% [signal inhibitor],
CCOC(=O)c1c(N)n(-c2ccc(C)c(C)c2)c2nc3ccccc3nc12,inactive: -1.15%,
COc1cc(CNC(=O)c2cc(-c3ccccc3)n[nH]2)cc(OC)c1OC,inconclusive: 0.886% [signal inhibitor],
CCN1c2ccccc2-c2nc3ccccc3n2C1c1cccnc1 (stereo not drawn),inactive: 1.17%,
COc1ccc(-n2nc(C(=O)N3CCC(C)CC3)c3c4ccccc4n(C)c3c2=O)cc1Cl,inconclusive: 8.24% [signal inhibitor],
COc1cccc(CNC(=O)Cn2cc3c(n2)-c2c(oc(C(=O)N4CCCC4)c2C)CC3)c1OC,inconclusive: -1.99% [signal inhibitor],
O=C(NCc1ccc2c(c1)CCN2C(=O)c1ccc(F)cc1)c1ccc(Br)o1,inconclusive: 2.4% [signal inhibitor],
Cc1cc(C)c(NC(=O)Cn2nc3c(cc2=O)CCCC3)c(C)c1,inconclusive: 10.4% [signal activator],
COc1cccc(/C=N/n2c(-c3ccco3)nc3ccccc3c2=O)c1,inactive: 7.32%,
CCOc1ccc(NC(=O)N(CCN2CCOCC2)Cc2ccc3c(c2)CCCN3CC)cc1,inconclusive: 3.8% [signal inhibitor],
CCCS(=O)(=O)c1ncc(Cl)c(C(=O)N(Cc2ccccc2)Cc2ccco2)n1,inconclusive: -1.23% [signal inhibitor],
CCOC(=O)c1c(NC(=O)c2nn(CC)cc2Br)c(C#N)cn1-c1ccccc1,inconclusive: -1.11% [signal inhibitor],
COc1cc2c(cc1OC)-c1cc(NC3CCCCCC3)nc(=O)n1CC2,inactive: -1.73%,
COc1ccc(C(=O)Nc2cccc3c2C(=O)NC3=O)cc1S(=O)(=O)N1CCOCC1,inactive: 0.519%,
COc1ccccc1NC(=O)N1CC(=O)Nc2sc3c(c2C1c1ccccc1)CCCC3 (stereo not drawn),inconclusive: 2.44% [signal inhibitor],
COc1ccccc1NC(=O)C1=C(C)Nc2c(C(=O)Nc3ccc(F)cc3)cnn2C1c1ccc(Cl)cc1 (stereo not drawn),inconclusive: 3.08% [signal inhibitor],
COc1ccc2c(Sc3ccccc3)c(C(=O)NCc3cccc(OC)c3OC)[nH]c2c1,inconclusive: 1.35% [signal inhibitor],
CCOc1ccc(CCNC(=O)CCCc2nnc3n(CC(C)C)c(=O)c4sccc4n23)cc1,inconclusive: 1.9% [signal inhibitor],
CCOC(=O)c1cc(S(=O)(=O)Nc2ccc(OC)c(Cl)c2)[nH]n1,inconclusive: -0.443% [signal inhibitor],
CCc1nc2sc3ccccc3c(=O)c2c(=O)n1Cc1ccco1,,"inconclusive: 12.6 µM [signal inhibitor, partial curve]"
Cc1ccc(C(c2nnnn2CCc2ccccc2)N2CCSCC2)cc1 (stereo not drawn),inconclusive: 0.742% [signal inhibitor],
Cc1ccc(OC(=O)c2cc(-c3ccccc3)nc3ccc(C)cc23)cc1,inactive: 5.65%,

SMILES,IkBa stabilization activation,Potency
COc1ccccc1Oc1nc2c(c(=O)n(C)c(=O)n2C)n1Cc1cccc(Br)c1,inconclusive: 11.5% [signal inhibitor],
CC(=O)N1c2ccc(S(=O)(=O)NCC3CCC(C(=O)NCCC(C)C)CC3)cc2CC1C (stereo not drawn),inactive: -0.232%,
CC(=O)Nc1ccc(S(=O)(=O)Nc2cccc(-c3ccc(N4CCC(C)CC4)nn3)c2)cc1,,"inconclusive: 20 µM [signal inhibitor, partial curve]"
CCn1c(SCC(=O)Nc2cc(C)on2)nc2c(c1=O)SC(C)C2 (stereo not drawn),inactive: -2%,
Cc1nc2c(cnn2-c2ccccc2Cl)c(=O)n1-c1ccc(C(C)C)cc1,inconclusive: -0.54% [signal inhibitor],
CCc1ccc(S(=O)(=O)c2nnn3c2nc(NCCc2ccccc2)c2sccc23)cc1,inconclusive: 2.28% [signal inhibitor],
COc1cccc(-c2nc(SCC(=O)Nc3ccc4c(c3)OCO4)c(-c3ccccc3)[nH]2)c1,inconclusive: 5.95% [signal inhibitor],
CN(C)S(=O)(=O)N(CC(=O)NCCSCc1ccccc1Cl)c1ccccc1,inconclusive: -1.45% [signal inhibitor],
CCCCC(=O)c1c(O)c2ccccc2oc1=O,,"inconclusive: 6.31 µM [signal inhibitor, partial curve]"
CCNc1ncc2nc(-c3ccccc3)c(=O)n(C[C@H]3CCCO3)c2n1,"inactive: -10.8% [at 11.4 µM, scaled: untreated 0%, proteasome inhibitor 100%]",
Cc1ccc2c(c1)c(C)c(C)n2CC(O)CN1CCOCC1 (stereo not drawn),inactive: 1.13%,
COc1ccc(CCn2cc3c(c2-c2ccccc2Br)c(=O)n(C)c(=O)n3C)cc1OC,inconclusive: 0.371% [signal inhibitor],
Cc1noc(C)c1COC(=O)c1cccc(S(=O)(=O)N2CCCCCC2)c1,inconclusive: 5.5% [signal inhibitor],
COc1cccc(-c2cn3c(n2)sc2cc(C(=O)NCc4cccs4)ccc23)c1,inconclusive: 1.21% [signal inhibitor],
COc1ccc2oc(=O)cc(CN3CCN(C(=O)c4ccccc4F)CC3)c2c1,inconclusive: -0.396% [signal inhibitor],
O=C(Nc1nc(-c2cccs2)cs1)c1cccc(S(=O)(=O)N2CCCCC2)c1,inconclusive: 6.06% [signal inhibitor],
Cc1[nH]nc2c1-c1nc3ccccc3nc1C(C)(C)C2,inconclusive: -3.06% [signal inhibitor],
COc1ccc(-c2cnnn2-c2ccc(NC(=O)c3ccco3)cc2)cc1OC,inactive: -3.25%,
Cc1ccc(C)c(Cn2c(=O)c3c(nc4n3CCN4c3ccc(F)cc3)n(C)c2=O)c1,inconclusive: 2.71% [signal inhibitor],
CCn1c(CN2CCC(C)CC2)nc2cc(NC(=O)c3ccccc3[N+](=O)[O-])ccc21,inconclusive: 13.5% [signal inhibitor],
CCOC(=O)c1c(C)[nH]c(CCC(=O)NCCCN2CCN(c3cccc(Cl)c3)CC2)c1C,inconclusive: 0.17% [signal inhibitor],

# From PubChem BioAssay AID445 (National Center for Advancing Translational Sciences (NCATS), 2006)
